The supplement of paper PMC3724861
The list shows a part of the results.

The sequences below were run on T1, Caupolican (Caup) homeodomain DNA-binding domain (assay: PBM E-score (8-mer, recovered from the published 9-mer minima) (E-score (dimensionless, -0.5 to 0.5)); Drosophila protein; higher = stronger relative binding preference, active = 0.31 or more).
T1 sequence: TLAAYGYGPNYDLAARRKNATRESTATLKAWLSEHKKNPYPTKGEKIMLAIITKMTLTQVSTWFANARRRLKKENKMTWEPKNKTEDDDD
Outline: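 Caup's homeodomain DNA-binding domain (residues 214-303) was produced by in vitro transcription and translation and applied at 100 nM to custom-designed protein binding microarrays. Each value is an enrichment score giving relative binding preference for a short DNA word; higher means stronger. Published 9-mer scores were the minimum of their two constituent 8-mer scores, and the 8-mer values were recovered from those minima. A cutoff of 0.31 marks candidate binding sequences.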

Row | Sequence | PBM E-score
1 | GATCCAGC | inactive: -0.116
2 | AACCAAAG | inactive: 0.122
3 | CCACGGCC | inactive: -0.294
4 | CTCAAATC | inactive: -0.0105
5 | AAGAGACA | inactive: 0.124
6 | ACCGCCCA | inactive: -0.202
7 | AACAGGGC | inactive: 0.0462
8 | GCGTCTCA | inactive: -0.157
9 | GCGAACAA | inactive: 0.212
10 | CCAGGGGG | inactive: -0.346
11 | CCGGGGTA | inactive: -0.115
12 | ACTGGCCC | inactive: -0.195
13 | AATGTGGG | inactive: 0.0397
14 | ACTGTGAG | inactive: -0.0353
15 | GCTTACCA | inactive: 0.0275
16 | CTATCACA | inactive: 0.14
17 | TGATATCA | ≥ 0.162
18 | ATAGGATC | inactive: 0.0862
19 | ATTATGCG | inactive: 0.104
20 | TTACCGAA | inactive: 0.0704
21 | ACCTACTA | inactive: 0.0891
22 | CAACATAG | inactive: 0.177
23 | CTTTTTTA | inactive: -0.063
24 | CAAACCTA | inactive: -0.00936

Row | Sequence | PBM E-score
25 | AGCATTCC | inactive: -0.101
26 | GGACGTGA | inactive: -0.0239
27 | ACCTCTGC | inactive: -0.124
28 | AGTCTGTG | inactive: 0.0461
29 | AGTACCAG | inactive: 0.0977
30 | AATGCTTC | inactive: 0.0255
31 | GCGATGTA | inactive: 0.268
32 | AATCAGTA | inactive: 0.2
33 | GTTAGAAC | inactive: 0.059
34 | AGCTCGGG | inactive: -0.181
35 | ATTACGTA | inactive: 0.173
36 | GAGTAAAC | inactive: 0.0324
37 | GTGGTTCA | inactive: 0.106
38 | ACCTTGAT | inactive: -0.0301
39 | TGATGTAA | active: 0.36
40 | AATGAGAC | inactive: -0.0274
41 | TCAACCAA | inactive: 0.0466
42 | AAGCTGCG | inactive: -0.143
43 | CGGGCATA | inactive: -0.0617
44 | CGTTTGGA | inactive: -0.054
45 | CTTTGGCC | inactive: -0.118
46 | TAACCGGA | inactive: -0.014
47 | CACTACAC | inactive: 0.206
48 | AACAAATA | inactive: 0.287

Row | Sequence | PBM E-score
49 | AAGTTGTG | inactive: 0.106
50 | CACACGAC | inactive: 0.0592
51 | CGGCATAC | inactive: -0.0519
52 | AGGCTTAC | inactive: -0.043
53 | AAAAACGT | inactive: 0.0448
54 | GCTAGGTA | inactive: -0.00982
55 | CCGGACTA | inactive: -0.0979
56 | TCCCACGA | ≥ -0.0756
57 | AGATGAAT | inactive: 0.0945
58 | TAAACGCA | inactive: 0.034
59 | AGGGTAAG | inactive: -0.0682
60 | TCAATTAA | inactive: 0.083
61 | ACTCTTGA | inactive: -0.024
62 | GGGCATAA | inactive: -0.0673
63 | GAACGTAC | inactive: 0.0845
64 | CTCTTTAA | inactive: -0.0278
65 | ATAACTCA | ≥ 0.0974
66 | ACGCATCG | inactive: 0.00845
67 | ACCACATA | inactive: 0.134
68 | CATACGTA | inactive: 0.196
69 | GTGATCTA | inactive: 0.0496
70 | GCTCCCCC | inactive: -0.358
71 | CCAAAAAA | inactive: 0.0343
72 | AGGCTGAT | ≥ 0.0181

Row | Sequence | PBM E-score
73 | GGAGCGAC | inactive: -0.0697
74 | GAACTCTA | inactive: 0.0471
75 | CGTTGGGC | inactive: -0.138
76 | AACGCTGT | inactive: 0.0847
77 | AACGTCAG | inactive: 0.0498
78 | CATCGTTC | inactive: 0.00229
79 | AGCCGCAC | inactive: -0.17
80 | ATTGAACC | inactive: 0.00538
81 | CAAATGCG | inactive: 0.0193
82 | ATTAGGGC | inactive: -0.065
83 | AATATCCC | inactive: 0.0141
84 | GAAGGAAA | inactive: -0.0842
85 | TCCTACCA | inactive: -0.0866
86 | ATTCCTTG | inactive: 0.058
87 | GCAGTTAA | inactive: -0.0286
88 | GGGTTCGA | inactive: -0.0924
89 | ACATCTAC | inactive: 0.296
90 | GGGTCAAC | inactive: -0.0293
91 | TGAGGGCA | inactive: -0.108
92 | ATTAGATA | ≥ 0.212
93 | AGCCTCCA | inactive: -0.239
94 | CAACCAAC | inactive: 0.0468
95 | TTCGGAAA | inactive: -0.0918
96 | CCAGGCAC | inactive: -0.0562

Row | Sequence | PBM E-score
97 | CCCTCTCG | inactive: -0.245
98 | CTCATTGC | inactive: 0.0423
99 | GAATTTCA | inactive: -0.00942
100 | GGTACAAC | active: 0.32
101 | CTCTGCGC | inactive: -0.141
102 | AGTATTGC | inactive: 0.12
103 | AGGACGGG | inactive: -0.116
104 | TAGCGTAA | inactive: 0.0187
105 | CGCCCTTC | inactive: -0.183
106 | CCTGACGA | inactive: -0.0143
107 | CTAGCCTA | inactive: -0.043
108 | GCTAAAAC | inactive: -9e-05
109 | CGCCTCAC | inactive: -0.0822
110 | CCCGCTAG | inactive: -0.241
111 | CAGAGTTC | inactive: -0.073
112 | GAGATAGC | inactive: -0.0575
113 | AGTGCCGA | inactive: -0.154
114 | GGTGTCAA | inactive: 0.197
115 | GAACTTCA | inactive: -0.0896
116 | CTAATTAA | inactive: 0.155
117 | GGACGGCC | inactive: -0.274
118 | CACCGGAG | inactive: -0.163
119 | AGGGGAGC | inactive: -0.27
120 | ACAAACCC | inactive: 0.122

Row | Sequence | PBM E-score
121 | AACAATAT | ≥ 0.296
122 | CGGTATAG | inactive: 0.00586
123 | CATCCTTC | inactive: -0.0147
124 | TACGCCCA | inactive: -0.0212
125 | AAACGGTG | inactive: 0.0578
126 | AAACAATT | inactive: 0.176
127 | CTTAATGC | inactive: -0.00154
128 | CCGGATTC | inactive: -0.0277
129 | CTCCTACA | inactive: 0.107
130 | CCCCTCAG | inactive: -0.155
131 | AACCTGGA | inactive: 0.0374
132 | CATACAAC | inactive: 0.27
133 | TGCTACAA | inactive: 0.251
134 | AGCTTCCC | inactive: -0.188
135 | AACCACTT | inactive: 0.118
136 | TGTAGAAA | inactive: 0.249
137 | TAGGTAAA | inactive: 0.0307
138 | CGGGTCGC | inactive: -0.249
139 | TCTCATAA | inactive: 0.0556
140 | CAATTTAG | inactive: 0.0674
141 | AAGTCTAA | inactive: 0.0476
142 | ACATCTCC | inactive: 0.197
143 | ATTCGCGG | inactive: -0.14
